{"source": "PubChem BioAssay AID2546", "about": "(National Center for Advancing Translational Sciences (NCATS), 2010)", "note": "Hit rate of the full screen: of about 310,000 compounds, about 11,000 (3.5%) were called active. Inconclusive means that the source gave no clear call. Such entries were picked first, then a sample of the others. Calls come from the whole dose curve; as a rule, active = well fitted inhibition curve with a large enough effect; inconclusive = small, poorly fitted or top-dose-only effect, or effect the other way; inactive = flat fitted curve, though single readings scatter. No potency is given beside an inconclusive call; the fits are too rough. % is set by controls: 0 for no effect and ±100 for the full control effect; potency is the fitted concentration of half-maximal effect; tags give direction and shape of the fitted curve.", "data": [{"assay": "VP16 counterscreen qHTS for inhibitors of ROR gamma transcriptional activity;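 note: Gal4-VP16 expression switched on by copper sulfate through the metallothionein promoter; nearly all actives have a fitted effect of over 50% in size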", "conditions": "Drosophila S2 Gal4-VP16 UAS-luciferase, luminescence, 20 h; activity, negative = inhibition: at 53.6 µM (top of the series)", "values": [{"compound": "CC(=O)c1c(Cl)nc2cccc3c2c1-c1ccccc1C3=O", "activity, negative = inhibition": "inactive: -16.6%"}, {"compound": "CCCCCCCCn1ccc(=N)cc1", "Potency": "active: 7.08 µM"}, {"compound": "Clc1ccc(Cn2cc(/C=N/n3cnnc3)c3ccccc32)c(Cl)c1", "Potency": "inconclusive [inhibitor, single point]"}, {"compound": "CCn1c(COc2ccccc2C)nnc1SCC(=O)OC", "activity, negative = inhibition": "inactive: 3.11%"}, {"compound": "CCOc1cccc2sc(N(CCCN(C)C)C(=O)c3ccc(S(=O)(=O)N(CC)Cc4ccccc4)cc3)nc12", "Potency": "active: 22.4 µM"}, {"compound": "Cc1cc(C)cc(NC(=S)N2CCN(Cc3ccccc3)CC2)c1", "Potency": "inconclusive [inhibitor, single point]"}, {"compound": "CCN(CC(O)Cn1c2ccccc2c2ccccc21)S(=O)(=O)c1ccc(C)cc1", "note": "(stereo not given)", "activity, negative = inhibition": "inactive: 0.169%"}, {"compound": "c1ccc(Nc2nc3ccccc3n3nnnc23)cc1", "Potency": "inconclusive [activator, single point]"}, {"compound": "CCCS(=O)(=O)c1cnc(C2COc3ccccc3O2)nc1N", "note": "(stereo not given)", "Potency": "active: 1.26 µM"}, {"compound": "Cc1cc(O)cc(O)c1C(=O)Cc1cnn(-c2ccccc2)c1", "Potency": "active: 0.355 µM"}, {"compound": "COc1ccc(NC(=O)CCN2CCOCC2)c(OC)c1", "activity, negative = inhibition": "inactive: 3.6%"}, {"compound": "CCCCOC(=S)NC(=O)c1sc2ccccc2c1Cl", "Potency": "inconclusive [inhibitor, single point]"}, {"compound": "CC1(C)CC(=O)c2cnc(NC(=O)Cc3ccc(Cl)cc3)nc2C1", "Potency": "inconclusive [inhibitor, single point]"}, {"compound": "c1ccc(CN2CCN(c3nc(-c4ccccc4)nc(-n4ccnc4)n3)CC2)cc1", "Potency": "inconclusive [inhibitor, single point]"}, {"compound": "CCOc1ccc(-c2nnc(-c3cccs3)o2)cc1", "Potency": "inconclusive [inhibitor, single point]"}, {"compound": "CCOC(=O)N1CCN(C(=O)CN(c2cccc(C(F)(F)F)c2)S(C)(=O)=O)CC1", "activity, negative = inhibition": "inactive: 0.84%"}, {"compound": "CC(=O)Nc1ccc(C(=O)Nc2cccc(-c3cnc4ccccc4n3)c2)cc1", "Potency": "inconclusive [inhibitor, full curve, poor fit]"}, {"compound": "COC(=O)c1sccc1NC(=S)N1CC(C)CC(C)C1", "note": "(stereo not given)", "Potency": "inconclusive [inhibitor, single point]"}, {"compound": "O=C(CCSc1nc(-c2ccco2)cc(C(F)(F)F)n1)NCc1cccs1", "activity, negative = inhibition": "inactive: -4.77%"}, {"compound": "O=C(Nc1ccccc1)N1CC2(CCN(S(=O)(=O)c3ccccc3)CC2)C1", "Potency": "inconclusive [activator, single point]"}, {"compound": "CN(C)/C=C/C(=O)c1cnc(-c2ccccc2)s1", "Potency": "inconclusive [activator, full curve, poor fit]"}, {"compound": "CC1(C)SC2c3ccccc3C(=O)N2[C@@H]1C(=O)O", "note": "(stereo not given in full)", "activity, negative = inhibition": "inactive: 2.32%"}, {"compound": "O=C(O)/C=C/c1ccc(OCc2cccc(F)c2)cc1", "Potency": "inconclusive [inhibitor, full curve]"}, {"compound": "COCCOc1ccc(C(F)(F)F)cc1NC(=O)c1ccc(C)cc1", "activity, negative = inhibition": "inactive: 6.25%"}, {"compound": "Cc1ccc(S(=O)(=O)Oc2ccc(C)cc2/C=N/N=C2\\NC(=O)C(C)S2)cc1", "note": "(stereo not given)", "Potency": "active: 10 µM"}, {"compound": "CCOc1ccccc1NC(=S)NC1CC2CCC1C2", "note": "(stereo not given)", "Potency": "active: 7.08 µM"}, {"compound": "O=C1c2cccc3c([N+](=O)[O-])ccc(c23)C(=O)N1CCc1ccccn1", "activity, negative = inhibition": "inactive: -0.502%"}, {"compound": "O=[N+]([O-])c1ccc(O)c(/C=N/Nc2ccccc2Cl)c1", "Potency": "inconclusive [inhibitor, partial curve]"}, {"compound": "CC1(O)CC(c2ccc(Cl)cc2)=NN1C(=O)c1ccc([N+](=O)[O-])cc1", "note": "(stereo not given)", "Potency": "inconclusive [inhibitor, single point]"}, {"compound": "Cc1c(CNC(=O)c2cnn3c2NC(c2ccc(Br)cc2)CC3C(F)(F)F)cnn1C", "note": "(stereo not given)", "Potency": "inconclusive [inhibitor, partial curve]"}, {"compound": "COc1cccc(CNS(=O)(=O)c2ccc3c(c2)CC(C)N3C(=O)C2CC2)c1", "note": "(stereo not given)", "Potency": "inconclusive [inhibitor, single point]"}, {"compound": "CCCOc1ccccc1-n1sc2c(c1=S)-c1cc(OC)cc3c1N(C(=O)C3=O)C2(C)C", "Potency": "inconclusive [inhibitor, single point]"}, {"compound": "COc1ccc(/C=N/NC(=O)Nc2cccc3nsnc23)cc1OC", "Potency": "inconclusive [inhibitor, partial curve]"}, {"compound": "CC(NCc1cc(Br)ccc1OCC(=O)NCc1ccccc1)c1ccccc1", "note": "(stereo not given)", "Potency": "inconclusive [inhibitor, single point]"}, {"compound": "O/N=C/c1ccnc(SCc2ccccc2)n1", "Potency": "active: 3.55 µM"}, {"compound": "O=S(Cc1cc(Oc2ccccc2)nc(-c2ccccc2)n1)c1ccccc1", "note": "(stereo not given)", "activity, negative = inhibition": "inactive: 0.301%"}, {"compound": "COc1ccc2nc3c(cc2c1)c(NC(=O)C1CCCO1)nn3CC(C)C", "note": "(stereo not given)", "activity, negative = inhibition": "inactive: 7.93%"}, {"compound": "COc1cccc(CC(=O)Nc2nc(-c3cccnc3)cs2)c1", "activity, negative = inhibition": "inactive: -5.53%"}, {"compound": "CC(C)N1CCN(Cc2ccc(OCc3ccccc3)cc2)CC1CCO", "note": "(stereo not given)", "activity, negative = inhibition": "inactive: -1.89%"}, {"compound": "Cc1cccc(NC(=S)NCCc2ccccc2)n1", "Potency": "active: 3.16 µM"}, {"compound": "O=C1CC(Sc2nnc(-c3ccccc3O)o2)C(=O)N1c1ccccc1", "note": "(stereo not given)", "Potency": "inconclusive [inhibitor, single point]"}, {"compound": "COc1ccc(N(C)S(=O)(=O)c2cccc(C(=O)Nc3ccc(-n4cnnn4)cc3)c2)cc1", "Potency": "inconclusive [inhibitor, single point]"}, {"compound": "CNC(=O)C1CCC(=O)N1Cc1ccccc1Cl", "note": "(stereo not given)", "activity, negative = inhibition": "inactive: 8.24%"}, {"compound": "CC(=O)/C=C(/C)NC(Cc1c[nH]c2ccccc12)C(=O)O", "note": "(stereo not given)", "Potency": "inconclusive [inhibitor, full curve, poor fit]"}, {"compound": "CCn1c(=NC(=O)c2ccc(S(=O)(=O)N3CCOCC3)cc2)sc2cccc(OC)c21", "Potency": "inconclusive [inhibitor, full curve]"}, {"compound": "O=S(=O)(c1ccc(NC(=S)N/N=C/c2c3ccccc3cc3ccccc23)cc1)N1CCOCC1", "Potency": "active: 7.08 µM"}, {"compound": "CCOC(=O)c1cn[nH]c1NC(=S)Nc1ccccc1", "Potency": "inconclusive [inhibitor, single point]"}, {"compound": "Cc1ccc2nc(NNC(=O)c3ccc4c(c3)OCCO4)sc2c1", "Potency": "inconclusive [inhibitor, single point]"}, {"compound": "COc1ccc(C)cc1N(C(=O)COc1ccccc1)c1nc2ccccc2s1", "activity, negative = inhibition": "inactive: 4.07%"}, {"compound": "COc1cc2nc(CN(C)Cc3nc4ccccc4c(=O)[nH]3)[nH]c(=O)c2cc1OC", "Potency": "active: 3.55 µM"}, {"compound": "O=C1N/C(=C/c2cccn2-c2ccccc2)C(=O)N1c1cccc(Cl)c1", "Potency": "inconclusive [inhibitor, single point]"}, {"compound": "CC(=O)Nc1ccc(Nc2cc(C(C)C)nc3c(-c4ccccc4)c(C)nn23)cc1", "Potency": "inconclusive [inhibitor, single point]"}, {"compound": "Cc1ccc(/C=C/c2nnc(-c3ccccc3)o2)cc1", "Potency": "inconclusive [inhibitor, partial curve]"}, {"compound": "O=C(CCCN1C(=O)c2ccccc2C1=O)Nc1c2c(nc3c1CCC3)CCC2", "Potency": "inconclusive [inhibitor, partial curve]"}, {"compound": "O=C1C(=C2SCCCS2)CC/C1=C\\c1ccc(F)cc1", "Potency": "active: 3.55 µM"}, {"compound": "Cc1ccc(/C=N/NC(=S)N2CCOCC2)cc1", "Potency": "active: 0.891 µM"}, {"compound": "OCCN(CCO)c1ncnc2c1sc1nc(N3CCOCC3)c3c(c12)CCCC3", "Potency": "inconclusive [inhibitor, single point]"}, {"compound": "COc1cccc(OC)c1C(=O)Nc1cc(C)nn1-c1nc2ccccc2[nH]1", "Potency": "inconclusive [inhibitor, full curve]"}, {"compound": "FC(F)(F)c1ccc(N2CCN(c3cc(-c4ccccc4)nc4ncnn34)CC2)nc1", "Potency": "inconclusive [inhibitor, single point]"}, {"compound": "O=C(OCn1ncc(Br)c(Br)c1=O)c1c(F)cccc1F", "Potency": "active: 4.47 µM"}, {"compound": "CC(=O)c1c(C)[nH]c(C(=O)N(CCc2ccccc2)Cc2ccccc2)c1C", "Potency": "inconclusive [inhibitor, single point]"}, {"compound": "O=C(N/N=C/c1c(O)n(Cc2ccccc2)c(=O)c2ccccc12)c1cccnc1", "activity, negative = inhibition": "inactive: -1.06%"}, {"compound": "CCN(C(=O)CN1C(=S)NC(C)(C)CC1C)c1ccc(C)c(C)c1", "note": "(stereo not given)", "Potency": "inconclusive [inhibitor, partial curve, poor fit]"}, {"compound": "NC(N)=NC(=S)Nc1ccc(Cl)cc1", "Potency": "inconclusive [activator, partial curve]"}, {"compound": "O=C(CNC(=O)c1ccccc1Cl)N/N=C/c1ccc([N+](=O)[O-])s1", "Potency": "inconclusive [inhibitor, single point]"}, {"compound": "CC(=O)c1ccc(-n2ccc(=O)cc2)cc1", "activity, negative = inhibition": "inactive: 1.75%"}, {"compound": "O=C(Nc1sc2c(c1C(=O)NCc1cccnc1)CCCC2)c1ccco1", "activity, negative = inhibition": "inactive: -11.8%"}, {"compound": "Cc1ccc(Nc2ccc(C(N)=O)cc2[N+](=O)[O-])cc1C", "Potency": "inconclusive [activator, single point]"}, {"compound": "CCCn1c(=O)c(C(=O)Nc2ccccc2)c(O)c2ccccc21", "Potency": "inconclusive [activator, single point]"}, {"compound": "Cc1ccc2cccc(NC(=S)NC(=O)c3ccn(C)n3)c2n1", "Potency": "active: 5.62 µM"}, {"compound": "Cc1c(C(=O)NCc2cccnc2)sc2nc(-c3ccc(F)cc3)cn12", "Potency": "inconclusive [inhibitor, full curve, poor fit]"}, {"compound": "COc1ccc(Cl)cc1NC(=O)C/C(C)=N/NC(=O)CCc1ccccc1", "activity, negative = inhibition": "inactive: 12.8%"}, {"compound": "CCOc1ccc(/C=C/C(=O)c2ccc(-c3ccccc3)cc2)cc1", "Potency": "inconclusive [activator, single point]"}, {"compound": "OCCN1CCN(CCOc2ccccc2-c2ccccc2)CC1", "Potency": "inconclusive [inhibitor, partial curve, poor fit]"}, {"compound": "CCn1c(NC(=O)C2CCCCC2)nc2ccccc21", "Potency": "active: 0.891 µM"}]}]}
